The supplement of paper PMC3334620
Whole data set: some 33,000 sequences, median “E-score (-0.5 to 0.5)” near -0.053, cut for the highest 2% near 0.37. The list shows a part of the results.

Target: Hap1 (UniProt P0CE41)
Test: PBM E-score (8-mer binding enrichment) (E-score (-0.5 to 0.5)); higher = stronger / more preferred TF binding; most listed sequences are background and not binding sites
Conditions: protein concentration: 200 nM; construct: GST-DNA-binding domain
Procedure, shortened: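 Universal all-10-mer Agilent arrays, fresh or stripped once, were converted to double-stranded form by primer extension. GST-tagged yeast transcription factors from PURExpress in vitro transcription/translation, full-length or DNA-binding domain only, were applied at about 100-200 nM and detected with fluorescent anti-GST. After masliner normalisation, the Universal PBM Analysis Suite scored each ungapped eight-base word together with its reverse complement by E-score.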

Sequence of UniProt P0CE41 (P0CE41 whole entry): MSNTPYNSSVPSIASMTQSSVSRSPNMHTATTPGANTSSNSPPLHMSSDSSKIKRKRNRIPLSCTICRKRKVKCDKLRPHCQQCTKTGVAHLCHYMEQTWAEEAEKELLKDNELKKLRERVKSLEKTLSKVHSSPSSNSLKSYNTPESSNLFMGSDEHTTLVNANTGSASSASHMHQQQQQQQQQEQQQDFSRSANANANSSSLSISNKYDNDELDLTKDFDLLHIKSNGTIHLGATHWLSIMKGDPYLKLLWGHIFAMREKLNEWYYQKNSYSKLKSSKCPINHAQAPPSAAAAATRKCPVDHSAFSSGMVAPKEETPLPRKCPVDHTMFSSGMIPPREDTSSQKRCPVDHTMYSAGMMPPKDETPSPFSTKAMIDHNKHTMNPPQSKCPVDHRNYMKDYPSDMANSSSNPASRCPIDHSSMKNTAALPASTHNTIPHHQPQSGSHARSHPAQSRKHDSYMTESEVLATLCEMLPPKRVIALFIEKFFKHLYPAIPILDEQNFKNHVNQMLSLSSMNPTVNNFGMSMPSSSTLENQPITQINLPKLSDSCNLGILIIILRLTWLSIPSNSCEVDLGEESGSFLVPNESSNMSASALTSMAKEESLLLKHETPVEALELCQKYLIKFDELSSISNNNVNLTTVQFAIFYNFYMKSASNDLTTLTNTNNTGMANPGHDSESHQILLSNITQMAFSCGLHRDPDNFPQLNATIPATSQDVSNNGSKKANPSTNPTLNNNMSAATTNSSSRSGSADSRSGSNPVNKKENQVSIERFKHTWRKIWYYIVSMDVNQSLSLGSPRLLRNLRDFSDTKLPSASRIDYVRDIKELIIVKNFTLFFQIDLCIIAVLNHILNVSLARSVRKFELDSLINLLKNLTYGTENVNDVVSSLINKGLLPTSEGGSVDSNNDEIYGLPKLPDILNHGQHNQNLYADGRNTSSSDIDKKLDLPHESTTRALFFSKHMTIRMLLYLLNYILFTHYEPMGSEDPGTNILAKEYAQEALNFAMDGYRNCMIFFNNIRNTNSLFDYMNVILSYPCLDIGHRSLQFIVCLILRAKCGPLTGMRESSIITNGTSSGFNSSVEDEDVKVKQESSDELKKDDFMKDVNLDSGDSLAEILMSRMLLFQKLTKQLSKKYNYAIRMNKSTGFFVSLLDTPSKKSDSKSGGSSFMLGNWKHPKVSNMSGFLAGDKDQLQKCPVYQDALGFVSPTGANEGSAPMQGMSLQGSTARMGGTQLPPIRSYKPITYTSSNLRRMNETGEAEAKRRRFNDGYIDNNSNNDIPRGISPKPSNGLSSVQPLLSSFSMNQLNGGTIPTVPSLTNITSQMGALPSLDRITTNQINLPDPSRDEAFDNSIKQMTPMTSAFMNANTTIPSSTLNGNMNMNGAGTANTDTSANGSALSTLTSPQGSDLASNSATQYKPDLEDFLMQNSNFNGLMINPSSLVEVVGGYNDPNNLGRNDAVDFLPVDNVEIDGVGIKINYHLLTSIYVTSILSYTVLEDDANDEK

Sequence | PBM E-score
CAACCCGA | 0.199
ACATGGCA | -0.218
ACATTGTG | -0.268
ACGCGAAG | 0.0657
AAACACGG | 0.0865
AGAGGGGG | -0.205
GACTCCCC | -0.00194
GCGGCGTA | 0.18
AACCCCAC | -0.0339
CAAGCACG | -0.0706
AACCCCAT | 0.134
ACCGTCAT | -0.0249
ACCACTAG | -0.231
CCTCGACG | -0.11
CGGCCCAG | 0.269
CGCTAGCG | 0.0545
CAGGGGTA | -0.29
AACCTTGT | -0.302
TCTTCCCA | -0.168
AAGATGCT | -0.0629
GCGACAGC | 0.0479
AAGAATGA | -0.104
CCCGTCCG | 0.314
CCAATCCA | -0.0616
ACTCCAGC | -0.126

Sequence | PBM E-score
AATTGTCT | -0.0911
TACCGATA | 0.378
AGGGTTGG | -0.124
CAATTTTA | -0.116
AACCCAGC | -0.192
GCCTATAA | -0.109
GCGGACAC | 0.203
GCCTCAGA | -0.136
CAACCCCG | 0.275
CGAACTCC | 0.239
AAAGCTGG | -0.194
GTGTCAAC | -0.126
AGAATTTG | -0.0982
GTAGGAAA | -0.201
GCTCCGTA | 0.297
CATTCAAA | 0.0502
AGCTCCCG | 0.0669
ATATATAC | 0.144
ATGCAACA | -0.345
CACAGTCG | -0.183
AACCAGGG | -0.174
TATATCCA | 0.113
GAAATCAA | 0.0626
CAGTTCGC | -0.0818
AATAAAGC | 0.0801

Sequence | PBM E-score
CATATTGG | -0.253
CGATAGAA | 0.213
CTTGGCGC | 0.0636
AGACCCCA | -0.0132
ACCGGAGG | 0.399
ATGAGACG | -0.0433
TGAGCCCA | -0.153
ACAGAGGA | -0.18
ACGGATCG | 0.199
AGACCCGC | 0.158
AGGATCGG | 0.129
GATCAGCA | 0.0132
TAAATCAA | -0.0853
CGCGTCTA | -0.0862
AGCAACAG | -0.091
GCTCCGGA | 0.444
ACGGTCTA | -0.00569
ACGTATTG | -0.116
GCACGGAC | 0.353
TGCTTACA | -0.178
GAGGGGGC | -0.199
ATACGCCC | 0.133
CATTACTA | -0.114
AGGTTCTA | -0.146
ATCCACGA | -0.204

Sequence | PBM E-score
CAAGCAGC | -0.207
CACTGTAA | -0.145
CTGACACA | -0.34
ATGTTCAG | -0.205
ATAAGAAG | 0.0696
ACAAGAGT | -0.06
CGTGGTCC | -0.0363
CCTATGAC | -0.13
AAAATGCT | 0.0607
ATCAGTGA | -0.209
GGAGTTAA | 0.429
CGATGTCC | 0.294
CTGGCGAA | -0.152
CCACAGGG | -0.234
AAGTCGAG | -0.359
AGAAGGTA | -0.0664
AGTTGAGC | -0.188
GAAAACTC | 0.0404
ATTCGTTC | 0.0564
ATCTGAGC | -0.00782
CTGAGATC | -0.171
AGAAGGAC | -0.152
GTTCATTA | -0.0465
GTTTAGAA | -0.0388
CAGTCTTA | -0.248

Sequence | PBM E-score
GGCCCGCC | 0.168
GAAAATAA | -0.0957
CATTGCTC | 0.145
ACCAGGTG | -0.0817
GAGACCCA | -0.0262
AACTAAGC | -0.138
AAGTTGGG | -0.12
CTCCGAGA | 0.376
TACCTCTA | -0.0913
ACGACGGA | 0.199
CAGGGAGA | -0.312
GGAAACTA | 0.181
ATTTCGCG | 0.207
AACTCTGC | -0.162
CGAGGCAG | -0.0113
ATTTCAAC | 0.0331
TCATGCGA | -0.0921
CGATTCGA | 0.0919
CCGCGCAA | 0.0206
AATGCCCC | 0.0889
ACACTAGT | -0.241
ATTTACTG | -0.0577
ATGGCTTG | -0.0703
AACCTGTG | -0.315
AATTGGGA | -0.0769

Sequence | PBM E-score
TAACGCTA | -0.0508
AACAATGT | -0.123
AACGACCG | 0.067
AGATAGCG | -0.0742
AGTAAATA | 0.101
ATCTCTGC | -0.0583
GTTTGCAA | -0.138
AGGTTGTC | -0.242
CGACGCTC | 0.0595
ATATTTTC | 0.0401
AAGGCCTC | -0.182
ACGCTGTC | 0.152
CTGCACAC | -0.253
ACTCAAGA | -0.214
CTGGGCCC | 0.0211
CTACGAGC | -0.109
CCTAGTCG | -0.171
ATCTCGTG | -0.0856
ATTCCCCC | 0.134
TGGTTTAA | -0.161
CACGCCCC | 0.0862
ATACGCAG | -0.262
ATCACTCC | 0.00325
GCCAACAC | 0.0365
GAGCTGGA | -0.101

Sequence | PBM E-score
GTGCAGTA | 0.0339
CAATCTTC | -0.138
CCCGTACA | -0.146
ACGCTTCT | -0.0831
GATAGCTA | -0.188
CGACTGAC | -0.0575
GTACCAGA | -0.273
CAAATATC | 0.172
AAGCTAAC | -0.139
ATATTGAG | -0.0371
CTCCCTGA | -0.162
CTACCTGA | -0.232
CACCAAAG | 0.00756
CCGTCTTC | 0.167
AATTGCCT | 0.0821
ACGGAGAA | 0.27
AGACCCAT | -0.137
CACTTTGC | -0.119
CGGGAGCA | 0.198
GGTGCAGA | -0.121
ATGAACCC | -0.0153
TATGTCCA | 0.126
GCAGCAAC | -0.0558
AGCGCTGG | -0.0242
AGGCCGAT | 0.327

Sequence | PBM E-score
AACTTCCA | 0.0156
AATCCATT | -0.0926
ATACATCC | 0.25
CAATTTCC | 0.249
GATGCAGC | -0.00204
CAACTAGG | -0.171
AACTTGGG | 0.0531
GACCGCCA | 0.0247
CGTGAGTA | -0.0097
AAGCTCGC | -0.008
CACCACCC | 0.106
ATGATCTC | -0.049
CAACCGCA | 0.0443
CGTACTTA | 0.105
CACTCTGG | -0.116
AGCCAATA | -0.23
AAATAGTC | 0.171
GAGAAGGC | -0.193
CGAGGTGA | 0.0779
CCATGGGG | -0.0695
CACTCCCC | 0.208
GGAATCTA | 0.0948
TAGGCGAA | -0.14
AGGACCTA | 0.095
CAGGGCGG | 0.0375

Sequence | PBM E-score
AACAACGA | -0.0348
GCGGTCAC | 0.0915
AGGTCACA | -0.242
AATGACAA | -0.147
AACTTCTA | -0.187
TAATACCA | 0.0482
AGCGTCGG | 0.208
ACAGAGAG | -0.328
CCAGTTTA | -0.113
CGCAGGCG | -0.208
ACGAGACC | 0.0348
CCATGTTA | -0.184
AGCGATAG | 0.119
CCTCGTAA | -0.00632
AGAGACGG | 0.068
AGGTGTGA | -0.211
AAGAGGGA | -0.278
ATAGCAAC | -0.0895
CGACGCAA | 0.054
